This is an account of results in PubChem BioAssay (NCATS).

Structures are written as SMILES. Where “and” joins values, the source holds several entries; their conditions need not be identical. Identical values can stand only once. This is one part of the list. Shown are side measurements of this screen, not its main read-out; they come without a call. Compounds called inactive in the main read-out are mostly missing here. The note in brackets gives the kind of curve behind each potency; many fits are weak.

This experiment can be described thus: qHTS Assay for Lipid Storage Modulators (AID 1519). The note with it: Drosophila S3 cells, BODIPY lipid droplet/cell ratio, laser cytometry, cells loaded with oleic acid. The method in brief: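 Cells seeded at 5,000 per well were treated with compounds over a concentration series and loaded with oleic acid (400 uM, as added). Lipid droplet fluorescence (488 nm excitation, 500-530 nm channel) was read by laser-scanning cytometry and normalized to 20 uM Triacsin C.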
(In qHTS, concentration-response curves come from the screen itself.)

Setting [1] is: measured here: cell count channel max response.
Setting [2] is: measured here: lipid (BODIPY) channel AC50.
[3] abbreviates: measured here: lipid channel max response.
The mark [4] stands for this setting: measured here: cell number channel AC50.
Tags describe the fitted curve by direction and shape.

Consider `O=C(c1cccc(F)c1)N1CCC2(CC1)CN(C(c1ccccc1)c1ccccc1)C2`, for which the max response is, setting by setting: under setting [1], 23%; under setting [3], 25.7%. Also, the AC50 (usually the concentration at which the activity in the assay is half-maximal) under setting [2] is 0.00708 µM [rising, full curve, poor fit].
`CC(=O)NCCNc1ncnc2ccc(-c3ccc(C(=O)N(C)C)cc3)cc12`: the max response by setting is: under setting [1], 20.7%; under setting [3], 33.1%. Also, under setting [2], the AC50 is 15.8 µM [rising, partial curve, poor fit].
For the molecule `CCCn1c(=O)[nH]c2nc(-c3ccc(S(=O)(=O)O)cc3)[nH]c2c1=O`, the max response runs as follows: under setting [1], 25.6%; under setting [3], 33.1%. The AC50 under setting [2] is 17.8 µM [rising, single point].
With `O=C1CC(c2ccccc2O)Oc2ccc(O)cc21` (stereo unspecified), the max response was 29.4% under setting [1] and 44.6% under setting [3]. For the same molecule, under setting [2], the AC50 is 31.6 µM [rising, partial curve].
`Cc1cccc(CNc2ncnc3ccc(-c4ccc(C(=O)N(C)C)cc4)cc23)c1`: the max response is, setting by setting: under setting [1], 2.33%; under setting [3], 16.4%. Besides, the AC50 under setting [2] is 2.82 µM [rising, single point].
Regarding `COCCn1c(=O)c(CCc2ccccc2)nc2cnc(N(C)C)nc21`, the max response by setting is: under setting [1], 24.9%; under setting [3], 31.2%. The AC50 under setting [2] is 0.562 µM [rising, full curve].
For `COc1ccc(C(=O)N2CCC[C@@]3(CCN(C)C3)C2)cc1`, the max response runs as follows: under setting [1], 26.7%; under setting [3], 37.4%. The AC50 under setting [2] is 28.2 µM [rising, single point].
For the molecule `CN1CCN(c2ccnc(-c3cccc(NS(C)(=O)=O)c3)n2)CC1`, the max response reads like this: under setting [1], 24%; under setting [3], 32.2%. The AC50 under setting [2] was 22.4 µM [rising, partial curve, poor fit].
As to `CCOc1ccc(Cc2nccc3cc(OCC)c(OCC)cc23)cc1OCC`, the max response was -26.4% under setting [1] and -30.2% under setting [3]. Also, under setting [2], the AC50 is 14.1 µM [falling, single point].
`O=C(c1ccco1)N1CCC[C@@]2(CCN(c3ccncc3)C2)C1`: the max response is 23.4% under setting [1] and 31.2% under setting [3]. Further, the AC50 under setting [2] is 0.0398 µM [rising, full curve].
On to `c1ccc(CNc2ncncc2-c2cccnc2)cc1`, for which the max response under setting [1] turned out to be 21.2% and the max response under setting [3] is 25.4%. Further, the AC50 under setting [2] was 3.55 µM [rising, full curve, poor fit].
Consider `COc1ccc(CNc2nc(-c3cccnc3)nc3ccccc23)c(OC)c1`, for which the max response by setting is: under setting [1], 13%; under setting [3], 15.8%. Also, the AC50 under setting [2] is 0.0355 µM [rising, full curve, poor fit].
As to `N#Cc1cccc(-c2nc3cnc(N4CCNCC4)nc3n(C3CC3)c2=O)c1`, the max response reads like this: under setting [1], 7.48%; under setting [3], 5.55%. Also, under setting [2], the AC50 is 0.00562 µM [rising, full curve, poor fit].
As for `C=C1C2CC[C@@]3(C)C(c4ccoc4)OC(=O)C[C@@]13OC1CC(OC(C)=O)C(C)(C)C(CC(=O)OC)[C@@]12C` (stereo partly specified), the max response reads like this: under setting [1], -5.58%; under setting [3], -36.7%. Besides, under setting [2], the AC50 was 11.2 µM [falling, partial curve].
In the case of `COc1ccc(-n2c(=O)c(-c3ccccc3)nc3cnc(N4CCNCC4)nc32)cc1`, the max response runs as follows: under setting [1], 23.4%; under setting [3], 25%. The AC50 under setting [2] is 4.47 µM [rising, full curve, poor fit].
Turning to `COc1ccc(Oc2ncc3nc(-c4ccccc4)c(=O)n(C[C@H]4CCCO4)c3n2)cc1`, the max response was -4.25% under setting [1] and -36.6% under setting [3]. For the same molecule, under setting [2], the AC50 was 39.8 µM [falling, single point].
Take `Nc1ncnc2c1ncn2[C@@H]1O[C@H](CO)[C@H](O)[C@H]1O`: the max response under setting [1] came to 28.9% and the max response under setting [3] is 30.2%. Moreover, under setting [2], the AC50 was 39.8 µM [rising, single point].
Turning to `CN1CCN(c2ncc3nc(-c4cn(C)c5ccccc45)c(=O)n(CCc4ccccc4)c3n2)CC1`, the max response runs as follows: under setting [1], 5.44%; under setting [3], 2.96%. The AC50 under setting [2] is 0.562 µM [rising, full curve].
Regarding `O=[N+]([O-])c1cccc2cn[nH]c12`, the max response is, setting by setting: under setting [1], 99.5% and 52.1%; under setting [3], 127% and 53.5%. Moreover, the AC50 under setting [4] was 31.6 µM [rising, partial curve].
Consider `COc1ccc(CNc2ccnc(-c3cccc(NS(C)(=O)=O)c3)n2)c(OC)c1`, for which the max response was determined as 22.9% under setting [1] and 30.2% under setting [3]. Under setting [2], the AC50 was 1.58 µM [rising, partial curve].
With `CCC(=O)O[C@H]1C(O[C@@H]2C(C)[C@H](O[C@H]3C[C@@](C)(OC)C(O)C(C)O3)C(C)C(=O)OC(CC)[C@@](C)(O)C(O)[C@H](C)C(=O)C(C)C[C@]2(C)O)OC(C)CC1N(C)C` (stereo partly specified), the max response is, setting by setting: under setting [1], 11.3%; under setting [3], 33.5%. Also, the AC50 under setting [2] is 0.708 µM [rising, partial curve].
In the case of `Cn1cc(-c2nc3cnc(N4CCNCC4)nc3n(Cc3ccc(F)cc3)c2=O)c2ccccc21`, the max response by setting is: under setting [1], -104%; under setting [3], -112%. Also, the AC50 under setting [4] was 39.8 µM [falling, single point].
Turning to `O=C1C=CC2=C3c4cc(O)c(O)cc4C[C@]3(O)COC2=C1`, the max response under setting [1] was -5.59% and the max response under setting [3] was -40.8%. For the same molecule, under setting [2], the AC50 is 20 µM [falling, single point].
On to `c1ccc(CNc2ccnc(-c3cccnc3)n2)cc1`, for which the max response is, setting by setting: under setting [1], 28.6%; under setting [3], 37.8%. The AC50 under setting [2] is 1.58 µM [rising, full curve].
As to `NC1C(O)OC(CO)[C@@H](O)[C@@H]1O[C@H]1O[C@@H](C(=O)O)C(O)C(O)C1O` (stereo partly specified), the max response reads like this: under setting [1], 27.9%; under setting [3], 39%. In addition, the AC50 under setting [2] is 39.8 µM [rising, single point].
As to `Cc1ccccc1-c1cc(N2CCNCC2)ncn1`, the max response under setting [1] worked out at 29.4% and the max response under setting [3] is 34.2%. Moreover, the AC50 under setting [2] is 20 µM [rising, single point].
As to `Cn1cc(-c2nc3cnc(N4CCNCC4)nc3n(C3CC3)c2=O)c2ccccc21`, the max response under setting [1] stood at 0.518% and the max response under setting [3] is -16.5%. In addition, the AC50 under setting [2] is 0.316 µM [rising, partial curve].
